This is one part of the list.

For test [1], the system named is HSkMC (human skeletal muscle cells). Put plainly: cytotoxicity call (relative viability < 0.9). The settings on record: 10 µM.
Test [2] has as its system HepG2. The test is described as follows: cytotoxicity call (relative viability < 0.9). The settings on record: 10 µM.
For test [3], the system named is S. aureus RN4220. Put plainly: growth inhibition call (relative growth <= 0.2). The settings on record: 50 µM.

As for `C1COC2(CCNCC2)OC1`, the cytotoxicity call in test [1] and in test [2] was “inactive” each time. For the same molecule, the growth inhibition call in test [3] is “inactive”.
For the molecule `O=C(O)C=CCO`, the cytotoxicity call in test [1] and in test [2] was “inactive” each time. In test [3], the growth inhibition call is “inactive”.
For `CCOC(=O)c1c(CN2CCN(Cc3ccccc3)CC2)n(Cc2ccccc2)c2cc(Br)c(O)cc12`, the cytotoxicity call in test [1] is “active”. For the same molecule, the cytotoxicity call in test [2] was “inactive”. For the same molecule, in test [3], the growth inhibition call is “inactive”.
In the case of `NCCO.NCCO.O[AsH]O[AsH]O` (centres undefined), in test [1], the cytotoxicity call is “inactive”. Also, the cytotoxicity call in test [2] is “active”. For the same molecule, in test [3], the growth inhibition call was “inactive”.
Regarding `O.O.O.O=C([O-])C1[O][Sb]2[O]C(=O)C([O]2)C(C(=O)[O-])[O][Sb]2[O]C(=O)C1[O]2.[K+].[K+]` (centres undefined), in test [1], the cytotoxicity call was “inactive”. Also, the cytotoxicity call in test [2] is “active”. The growth inhibition call in test [3] was “inactive”.
Consider `NC[C@H]1CCCc2ccc(Cl)cc21`, for which the cytotoxicity call in test [1] and in test [2] was “inactive” in each case. The growth inhibition call in test [3] was “inactive”.
Regarding `[N-]=[N+]=NCc1ccccc1C[C@]1(C(=O)N2CCOCC2)N=C(c2ccc(OCCCO)cc2)O[C@H]1c1ccccc1N=[N+]=[N-]`, the cytotoxicity call in test [1] is “inactive”. Besides, the cytotoxicity call in test [2] is “active”. Also, the growth inhibition call in test [3] is “inactive”.
For the molecule `Cc1cc(O[C@@H]2O[C@H](CO)[C@@H](O)[C@H](O)[C@H]2O)c2c3c(c(=O)oc2c1)CCC3`, the cytotoxicity call in test [1] and in test [2] was “inactive” throughout. In addition, in test [3], the growth inhibition call was “inactive”.
With `N[C@H]1CCCN(Cc2cccnc2)C1`, the cytotoxicity call in test [1] and in test [2] was “inactive” each time. In addition, the growth inhibition call in test [3] was “inactive”.
For `CC(C)C[C@H]1C(=O)N2CCC[C@H]2[C@]2(O)O[C@](NC(=O)[C@@H]3C=C4c5cccc6[nH]c(Br)c(c56)C[C@H]4N(C)C3)(C(C)C)C(=O)N12`, the cytotoxicity call in test [1] and in test [2] was “inactive” in each case. In addition, the growth inhibition call in test [3] is “inactive”.
As to `C[C@@H]1CN([C@@H](C)CO)C(=O)c2cc(NC(=O)Nc3ccccc3)ccc2O[C@@H](C)CCCCO[C@H]1CN(C)C(=O)Oc1ccccc1`, the cytotoxicity call in test [1] and in test [2] was “inactive” each time. Further, the growth inhibition call in test [3] was “inactive”.
As for `CCOP(=S)(OCC)Oc1cc(C)nc(C(C)C)n1`, the cytotoxicity call in test [1] and in test [2] was “inactive” each time. Moreover, the growth inhibition call in test [3] is “inactive”.
Take `NCCc1nccs1`: the cytotoxicity call in test [1] and in test [2] was “inactive” throughout. Moreover, the growth inhibition call in test [3] is “inactive”.
With `C=C(C)[C@@H]1CCC(C)=C[C@H]1c1c(O)cc(CCCCC)cc1O`, in test [1], the cytotoxicity call is “active”. Besides, in test [2], the cytotoxicity call was “inactive”. Moreover, the growth inhibition call in test [3] is “active”.
For the molecule `COc1cc(C=O)cc(OC)c1OC`, the cytotoxicity call in test [1] and in test [2] was “inactive” in each case. Moreover, the growth inhibition call in test [3] is “inactive”.
As for `CN1C[C@H](C(=O)N[C@]2(C)O[C@@]3(O)[C@@H]4CCCN4C(=O)[C@H](Cc4ccccc4)N3C2=O)C=C2c3cccc4[nH]cc(c34)C[C@H]21`, the cytotoxicity call in test [1] and in test [2] was “inactive” throughout. Also, the growth inhibition call in test [3] was “inactive”.
For `Nc1ccc(N2CCNCC2)cc1`, the cytotoxicity call in test [1] and in test [2] was “inactive” in each case. Further, the growth inhibition call in test [3] was “inactive”.
With `CCCC(C)C1(CC)C(=O)N=C([S-])NC1=O.[Na+]` (centres undefined), the cytotoxicity call in test [1] and in test [2] was “inactive” in each case. Also, the growth inhibition call in test [3] is “inactive”.
Take `CCC[C@@H](CN)c1ccc(F)cc1`: the cytotoxicity call in test [1] and in test [2] was “inactive” each time. The growth inhibition call in test [3] is “inactive”.
In the case of `COc1ccc2c(c1OC)C(=O)OC2C1c2cc3c(cc2CCN1C)OCO3` (centres undefined), the cytotoxicity call in test [1] and in test [2] was “inactive” each time. The growth inhibition call in test [3] is “inactive”.
Take `Cl.NCCc1ccccc1`: the cytotoxicity call in test [1] and in test [2] was “inactive” in each case. Also, the growth inhibition call in test [3] was “inactive”.
With `OCc1ccc2c(c1)OCO2`, the cytotoxicity call in test [1] and in test [2] was “inactive” in each case. The growth inhibition call in test [3] was “inactive”.
Regarding `Cc1cc(C(C#N)c2ccc(Cl)cc2)c(Cl)cc1NC(=O)c1cc(I)cc(I)c1O` (centres undefined), the cytotoxicity call in test [1] and in test [2] was “inactive” each time. Further, the growth inhibition call in test [3] is “inactive”.
In the case of `CS(=N)(=O)CC[C@H](N)C(=O)O` (some centres undefined), the cytotoxicity call in test [1] and in test [2] was “inactive” throughout. For the same molecule, the growth inhibition call in test [3] was “inactive”.
For the molecule `CC(NC(C)(C)C)C(=O)c1cccc(Cl)c1.Cl` (centres undefined), the cytotoxicity call in test [1] and in test [2] was “inactive” throughout. For the same molecule, in test [3], the growth inhibition call is “inactive”.
For `C[C@H](CO)N1C[C@H](C)[C@H](CN(C)C(=O)Oc2ccccc2)OCc2ccccc2-c2c(n(C)c3ccccc23)C1=O`, the cytotoxicity call in test [1] and in test [2] was “inactive” each time. For the same molecule, the growth inhibition call in test [3] is “inactive”.
As to `CC(C)CCC[C@]1(C)C=Cc2c(O)c3c(c(CCC(C)C)c2O1)O[C@]12[C@H](C[C@@H]4C[C@H]1C(C)(C)O[C@]2(CC[C@@H](C)C(=O)O)[C@@H]4O)C3=O`, the cytotoxicity call in test [1] and in test [2] was “inactive” throughout. Besides, the growth inhibition call in test [3] is “inactive”.
With `CNC(=O)Oc1ccc2c(c1)C1(C)CCN(C)C1N2C.O=C(O)c1ccccc1O` (centres undefined), in test [1], the cytotoxicity call was “inactive”. For the same molecule, the cytotoxicity call in test [2] is “active”. In addition, in test [3], the growth inhibition call was “inactive”.
For the molecule `C#CCOS(=O)OC1CCCCC1Oc1ccc(C(C)(C)C)cc1` (centres undefined), the cytotoxicity call in test [1] and in test [2] was “inactive” throughout. Moreover, the growth inhibition call in test [3] is “inactive”.
Consider `Cc1cnc[nH]1`, for which the cytotoxicity call in test [1] and in test [2] was “inactive” in each case. Further, the growth inhibition call in test [3] is “inactive”.
With `Cc1cc2c(C(C)C)c(O)c(O)c(C=O)c2c(O)c1-c1c(C)cc2c(C(C)C)c(O)c(O)c(C=O)c2c1O`, the cytotoxicity call in test [1] and in test [2] was “active” throughout. Besides, the growth inhibition call in test [3] is “inactive”.
As to `CCOc1cc(C=O)ccc1O`, the cytotoxicity call in test [1] and in test [2] was “inactive” in each case. For the same molecule, in test [3], the growth inhibition call is “inactive”.
On to `O=C1NC(=O)C(C2(O)C(=O)c3ccccc3C2=O)C(=O)N1`, for which the cytotoxicity call in test [1] and in test [2] was “inactive” in each case. Further, in test [3], the growth inhibition call is “inactive”.
As to `C=CCSSCC=C`, the cytotoxicity call in test [1] and in test [2] was “inactive” in each case. Further, the growth inhibition call in test [3] is “inactive”.
On to `C[N+](C)(C)CC#CCN1CCCC1=O`, for which the cytotoxicity call in test [1] and in test [2] was “inactive” each time. Moreover, the growth inhibition call in test [3] was “inactive”.
On to `COCCCNC(=O)[C@@]1(Cc2ccccc2CN=[N+]=[N-])N=C(c2ccc(OCCCO)cc2)O[C@H]1c1ccccc1CN=[N+]=[N-]`, for which, in test [1], the cytotoxicity call was “inactive”. Also, the cytotoxicity call in test [2] was “active”. Further, in test [3], the growth inhibition call is “inactive”.
With `C1CO[C@@]2(C1)CCNC2`, the cytotoxicity call in test [1] and in test [2] was “inactive” in each case. In addition, the growth inhibition call in test [3] is “inactive”.
Turning to `CP(=O)(O)C1=CCNCC1`, the cytotoxicity call in test [1] and in test [2] was “inactive” each time. In addition, the growth inhibition call in test [3] was “inactive”.
